Data on one molecule can be found in patent US10858425B2, “Pan-ELR+ CXC chemokine antibodies” (Eli Lilly and Company, priority 2013, dated 2020).

The target of assay [1] is T1, human CXCL8 (72 amino acid form) (Homo sapiens, UniProt P10145).
T1 construct: Both the 72 amino acid and 77 amino acid forms of CXCL8 were used
T1 sequence (P10145 28-99): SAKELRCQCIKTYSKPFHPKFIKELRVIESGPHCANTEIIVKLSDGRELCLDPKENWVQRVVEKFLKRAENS
Kind of assay: FLIPR neutralization using HMEC cells expressing human CXCR2, CXCL8 (72). The format is cell-based. The settings on record: CXCL8 (72) 10 nM; HMEC-huCXCR2 FLIPR. An excerpt:
Since all of the ELR+ CXC chemokines can bind CXCR2 receptor, cells expressing CXCR2 were selected for in vitro studies. HMEC-huCXCR2 is an immortalized human endothelial cell line transduced with retrovirus for expression of human CXCR2 receptor. HMEC cells expressing human CXCR2 are able to induce intracellular Ca^2+ influx in response to human, cynomolgus monkey, rat, and mouse ELR+CXC chemokines. Intracellular Ca^2+ influx can be detected by a Fluorescent Imagine £late Reader (FLIPR). Chemokine neutralization should therefore also neutralize intracellular Ca^2+ influx induced by these chemokines.
HMEC-huCXCR2 is maintained in MCDB 31 medium supplemented with 10% fetal bovine serum, 2× GlutaMax, 1× non-essential amino acids, 1 μg/mL hydrocortisone, 10 ng/mL human Epidermal Growth Factor, and 0.4 μg/mL puromycin at 37° C. in 5% CO2. […] A cell plate and a ligand-antibody plate are loaded into a Fluorescent Imagine Plate Reader (FLIPR-3, Molecular Devices) programmed to transfer 50 μL of ligand-antibody to wells of the cell plate. Fluorescence is recorded every second for 90 seconds. The change in fluorescence (DRFU) is calculated from images 10 to 90. DRFU versus log (antibody concentration) is plotted and IC50 values are determined by nonlinear regression using Graph Pad Prism. […] Data are expressed as the mean of replicates. […]

Assay [2] has as its target T2, human CXCL8 point mutant A35P (Homo sapiens, UniProt P10145, A62P).
T2 construct: His-SUMO (N, cleaved yes); made in house; host or cells: E. coli
T2 sequence (P10145 28-99 A62P): T1 sequence (P10145 28-99) with A35P
The experiment in a line: U937-huCXCR2 FLIPR neutralization of human CXCL8 A35P. Format: cell-based. The settings on record: human CXCL8 A35P 8 nM. The procedure: Wild type and mutant human CXCL8 are tested for biologic activity and for neutralization by Antibody 1 using the U937-huCXCR2 assay. U937-huCXCR2 is a monocytic cell line transduced with retrovirus for expression of human CXCR2. A description of the U937-huCXCR2 assay is found below under Neutralizing Assays.
Antibody 1 is serially diluted in Assay Buffer containing 0.2% BSA. Antibody concentrations are 3 times the final assay concentration (final concentrations range from 10 to 0.0195 μg/ml). Stock solutions of wild type human CXCL8 and CXCL8 mutants are prepared in Assay Buffer+0.2% BSA at 240 nM (30× the final assay concentration of 8 nM). 20 μL of ligand is mixed with 180 μL of Antibody 1 in wells of v-bottom 96-well polypropylene plates. Ligand and antibody are incubated at room temperature for 30 minutes. A cell plate and a ligand-antibody plate are loaded into a Fluorescent Imaging £late Reader (FLIPR-3, Molecular Devices) programmed to transfer 50 μL of ligand-antibody to wells of the cell plate. Fluorescence is recorded at 1 second intervals for 90 seconds. The change in fluorescence (DRFU) is calculated from images 10 to 90. DRFU versus log (antibody concentration) is plotted and IC50 values are determined by nonlinear regression using Graph Pad Prism. Assays are performed in triplicate over three assay plates.

Assay [3] deals with T3, human CXCL8 (IL-8) (Homo sapiens, UniProt P10145).
T3 sequence (P10145 28-99 limits assumed): T1 sequence (P10145 28-99)
Kind of assay: Biacore surface plasmon resonance binding to human CXCL8. The settings on record: 25° C. The procedure: (§1) Biacore 2000 instrument and Biacore 2000 Evaluation Software Version 4.1 are used for surface plasmon resonance analysis. A […] chip is prepared using manufacturer's EDC/NHS amine coupling method. Briefly, the surfaces of all four flow cells are activated by injecting a 1:1 mixture of EDC/NHS for 7 minutes at 10 μL/min. Protein A is diluted to 100 μg/mL in 10 mM acetate, pH 4.5 buffer, and immobilized to achieve approximately 10,000 RU onto all 4 flow cells by 7-minute injection at a flow rate of 10 μL/minute. Unreacted sites are blocked with a 7-minute injection of ethanolamine at 10 μL/minute. Two injections of glycine (pH 1.5) for 30 seconds at 10 μL/minute are used to remove any non-covalently associated protein. Running buffer is HBS-EP+.
(§2) Antibody 1 or Antibody 2 is diluted to 2 μg/mL in running buffer, and approximately 400-600 RU is captured in flow cell (Fc). Ligands are diluted from 100 μg/mL to 50 nM in running buffer and then two-fold serially diluted in running buffer to 3.125 nM. Duplicate injections of each ligand concentration are injected at 100 μL/min for 150 seconds followed by a dissociation phase. […] The on-rate (kon) and off-rate (koff) for each ligand are evaluated using a “1:1 (mass transfer) Binding” binding model. The affinity […] is calculated from the binding kinetics according to the relationship: KD=koff/kon.
Background: In SPR one partner is held on a chip, and binding of the other changes the refractive index at the surface.

In assay [4] the target is T4, human CXCL2 (Gro Beta) (Homo sapiens, UniProt P19875).
T4 sequence (P19875 35-107): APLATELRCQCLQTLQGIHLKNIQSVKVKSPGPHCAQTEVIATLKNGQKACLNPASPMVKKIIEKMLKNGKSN
Kind of assay: Biacore surface plasmon resonance binding to human CXCL2. The settings on record: 25° C. On the procedure:
as §1, §2

Where a chain is given by its changes, count along the chain named.

B1: Antibody 1: antibody with heavy chain SEQ ID NO: 1 and light chain SEQ ID NO: 3, expressed in NSO cells (antibody)
heavy: QVQLVQSGAEVKKPGASVKVSCKASGYEFTSYWIHWVRQAPGQGLEWMGNISPNSGSANYNEKFKSRVTMTRDTSTSTVYMELSSLRSEDTAVYYCAREGPYSYYPSREYYGSDLWGQGTLVTVSSASTKGPSVFPLAPCSRSTSESTAALGCLVKDYFPEPVTVSWNSGALTSGVHTFPAVLQSSGLYSLSSVVTVPSSSLGTKTYTCNVDHKPSNTKVDKRV[human IgG4 Fc with S228P (EU numbers) not spelt out]
light: EIVLTQSPATLSLSPGERATLSCRASQSISNNLHWYQQKPGQAPRLLIYYTSRSVSGIPARFSGSGSGTDFTLTISSLEPEDFAVYYCGQNNEWPEVFGGGTKVEIKRTVAAPSVFIFPPSDEQLKSGTASVVCLLNNFYPREAKVQWKVDNALQSGNSQESVTEQDSKDSTYSLSSTLTLSKADYEKHKVYACEVTHQGLSSPVTKSFNRGEC
With B1, the IC50 in assay [1] is 0.951 (±0.416) ug/mL. In addition, in assay [2], the “U937 FLIPR neutralization IC50” value is given as “No neutralization”. The kon is listed as 3.39 ± 0.03 (1/Ms) × 10^5 in assay [3] and 7.73 ± 0.86 (1/Ms) × 10^5 in assay [4].
